# In article PMC4336329 (PLoS ONE, 2015):
# Among all 310,000 compounds or so, about 14,000 (4.5%) showed an effect of 50% or more. The effect is printed as a negative number. The list shows a part of the results.
# Molecular target: human ether-à-go-go-related gene (hERG) potassium channel (human, UniProt Q12809)
# Experiment: primary screen, population patch clamp on CHO cells stably expressing hERG
# 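Also: peak tail current of the secondary pulse compared with the same well before compound.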
# Sequence of human ether-à-go-go-related gene (hERG) potassium channel (Q12809 whole entry, looked up): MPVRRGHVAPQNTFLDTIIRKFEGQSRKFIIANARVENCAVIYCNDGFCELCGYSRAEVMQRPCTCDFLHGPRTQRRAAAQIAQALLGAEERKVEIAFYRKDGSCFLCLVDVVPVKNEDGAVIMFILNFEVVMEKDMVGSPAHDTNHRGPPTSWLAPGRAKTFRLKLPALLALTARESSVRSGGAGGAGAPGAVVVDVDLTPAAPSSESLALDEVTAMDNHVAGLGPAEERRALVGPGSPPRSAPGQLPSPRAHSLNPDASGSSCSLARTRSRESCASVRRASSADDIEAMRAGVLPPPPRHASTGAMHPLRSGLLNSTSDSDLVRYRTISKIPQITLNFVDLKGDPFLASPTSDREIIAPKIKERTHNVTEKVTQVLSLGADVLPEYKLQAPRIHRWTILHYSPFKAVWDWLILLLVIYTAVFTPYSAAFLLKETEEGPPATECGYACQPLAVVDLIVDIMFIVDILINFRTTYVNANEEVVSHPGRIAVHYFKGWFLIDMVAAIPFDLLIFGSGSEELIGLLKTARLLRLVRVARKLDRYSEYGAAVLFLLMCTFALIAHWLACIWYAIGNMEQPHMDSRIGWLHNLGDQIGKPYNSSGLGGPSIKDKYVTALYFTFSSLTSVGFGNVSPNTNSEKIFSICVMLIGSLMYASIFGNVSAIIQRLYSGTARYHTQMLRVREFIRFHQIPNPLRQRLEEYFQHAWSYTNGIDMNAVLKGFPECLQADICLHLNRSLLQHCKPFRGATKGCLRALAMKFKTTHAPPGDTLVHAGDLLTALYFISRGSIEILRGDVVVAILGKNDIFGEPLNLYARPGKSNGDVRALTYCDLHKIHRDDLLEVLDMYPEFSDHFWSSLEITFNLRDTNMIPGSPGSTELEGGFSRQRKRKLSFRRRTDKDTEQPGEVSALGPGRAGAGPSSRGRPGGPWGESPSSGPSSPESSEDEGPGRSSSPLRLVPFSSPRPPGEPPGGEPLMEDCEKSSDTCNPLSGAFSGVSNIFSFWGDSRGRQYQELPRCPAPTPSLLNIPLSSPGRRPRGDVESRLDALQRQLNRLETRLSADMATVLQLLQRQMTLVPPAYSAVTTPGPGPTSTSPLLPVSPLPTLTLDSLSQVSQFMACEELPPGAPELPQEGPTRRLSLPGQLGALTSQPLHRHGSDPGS
row,Compound,"hERG current change (%, negative = inhibition) at 10uM [%]"
1,O=C(CSc1nnc(-c2cccnc2)n1Cc1ccco1)Nc1cccc(O)c1,-10.5
2,Cc1ccc(NC(=O)N/C=C/c2ccco2)c(C)c1,-3.12
3,CC1CCCCN1C(=O)COC(=O)c1cc([N+](=O)[O-])ccc1N1CCOCC1 (stereo not shown),-15.5
4,CC(O/N=C/c1ccc(OC(F)F)cc1)C(=O)Nc1cccc(S(=O)(=O)N2CCOCC2)c1 (stereo not shown),-60.5
5,Cc1ccc(CCNC(=O)CS(=O)Cc2nc(-c3ccccc3F)oc2C)cc1 (stereo not shown),-31.2
6,COc1cccc(C(=O)N/N=c2\sc3ccccc3n2C)c1,-4.81
7,Brc1ccc(CSc2nccn2-c2ccccc2)cc1,-0.228
8,Cc1c(C(=O)Nc2ccc(Cl)cc2)c2ccccn2c1C(=O)c1ccccc1,3.87
9,Cc1nn2c(NC(C)C)c3c(nc2c1-c1ccccc1)CCC3,1.99
10,Cc1cccc(C=Nc2ccccc2C(N)=O)c1,12.7
11,COc1ccc(-n2c(C)c(C)c3c(NCCCO)ncnc32)cc1,-14.3
12,COc1ccccc1/C=N/Nc1cc(C)nc(N2CCOCC2)n1,15.5
13,CNC(=O)CS(=O)(=O)CC(=O)Nc1cc(OC(C)C)c(Cl)cc1Cl,9.86
14,COC(=O)c1cnn(-c2ccccc2)c1/C=N/NC(=S)Nc1ccccc1,9
15,Cc1cc(C(=O)OCC(=O)NCc2ccccc2Cl)c(C)o1,19
16,Cc1ccc(-c2nn3c(C)nnc3s2)cc1NC(=O)c1cccs1,-20.5
17,NC(=O)CCn1nc(-c2ccc(Cl)cc2)c2ccccc2c1=O,-30.9
18,COc1c(C)cc(C(=O)C2CCCN(C(=O)CCc3scnc3C)C2)cc1C (stereo not shown),-21.7
19,O=C(NCc1ccco1)/C(=C\c1ccco1)NC(=O)c1ccccc1Cl,-35.1
20,CC(OC(=O)CCN1C(=O)C2CC=CCC2C1=O)C(=O)Nc1cccc(C#N)c1 (stereo not shown),-25.4
21,COc1ccc(CNC(=O)C[C@H]2C(=O)N(C3CCCCC3)C[C@@H]2Cc2ccccc2)cc1,-5.71
22,COc1ccc(S(=O)(=O)n2nc(-c3cc(OC)c(OC)c(OC)c3)cc2N)cc1OC,-2.63
23,CSCCC(NC(=O)COc1ccccc1)C(=O)OCCOc1ccc(C)cc1 (stereo not shown),-10.7
24,COc1ccc(Cc2nnc(NC(=O)CS(=O)(=O)c3ccccc3)s2)cc1OC,15.9
25,CCCN1CCC(=NNC(=O)c2ccc(Br)o2)CC1,-7.22
26,COc1ccc(C)cc1S(=O)(=O)N1CCN(S(=O)(=O)c2cc(C)ccc2OC)C(C)C1 (stereo not shown),-14.6
27,Cc1noc(C)c1COC(=O)/C=C/c1ccc(Cl)cc1,0.131
28,Cc1ccc(N(CC(=O)NCc2ccccn2)S(=O)(=O)c2ccccc2)cc1C,2.05

row,Compound,"hERG current change (%, negative = inhibition) at 10uM [%]"
1,COC(=O)c1ccc(COc2ccccc2/C=C/C(=O)c2ccc(OCC(=O)O)cc2)cc1,3.76
2,CC1(C)CC(=O)c2ccc(OCc3ccc([N+](=O)[O-])cc3)cc2O1,-57.7
3,COc1ccc(C2CC(c3ccc(Br)cc3)=NN2C(=O)CSC2=NCCS2)cc1 (stereo not shown),2.68
4,CCOC(=O)c1c(C)[nH]c(C)c1S(=O)(=O)NCCCc1ccco1,3.28
5,O=C1CSC(=S)N1/N=C/c1ccc(C(F)(F)F)cc1,21.4
6,CCOC(=O)C1(Cc2ccccc2Cl)CCN(S(=O)(=O)N(C)C)CC1,-13.3
7,OC1(C#CCCN2CCCCC2)c2ccccc2-c2ccccc21,-25.3
8,Cc1cccc(C(C(=O)NCc2ccc(F)cc2)N(C(=O)c2csnn2)C2CC2)c1 (stereo not shown),-20.7
9,COc1ccc(N2CCN(C(=O)CN(c3cccc(OC)c3)S(=O)(=O)c3ccccc3)CC2)cc1,-19.4
10,CCC(C)(C)n1nnnc1C(c1ccc2ncccc2c1)N1CCN(c2ccc(O)cc2)CC1 (stereo not shown),-31.7
11,FC(F)(F)c1cnc(C(c2ccccc2)c2ncn[nH]2)c(Cl)c1 (stereo not shown),16.8
12,Cc1oc(-c2ccc(Cl)cc2)nc1CSCC(=O)NCCCN1CCOCC1,-5.13
13,COc1ccccc1C(=O)Nc1ccc(OCC(=O)N2CC(C)CC(C)C2)cc1 (stereo not shown),-10.2
14,CCN(CC)c1nc(C#N)cc(-c2ccc(OC)cc2)n1,1.52
15,O=C(OC1CCOC1=O)c1ccc(Cl)c(S(=O)(=O)N2CCCCC2)c1 (stereo not shown),-4.58
16,CN(C)/C=C/C=C1C(=O)CCCC1=O,-4.38
17,COC(=O)C1(C)NC(c2ccc(Cl)cc2)C2C(=O)N(c3ccccc3)C(=O)C21 (stereo not shown),-3.27
18,COc1ccc(CC(=O)NC(c2ccccc2)c2ccc(C)cc2)c(OC)c1 (stereo not shown),11.3
19,Nc1nc(SCc2ccc([N+](=O)[O-])cc2)nc2nc3c(cc12)CCCC3,9.35
20,COc1ccc(NC(=O)CC23CC4CC(CC(C4)C2)C3)cn1,2.19
21,O=C(O)c1cccc(NC2=Nc3cccc4cccc2c34)c1,14.3
22,O=C(Nc1ccc2nc3n(c(=O)c2c1)CCCCC3)c1ccccc1Cl,-45.6
23,COc1cc(C(=O)Nc2ccccc2C(=O)Nc2ccccn2)cc(OC)c1OC,-22.5
24,O=C(Nc1ccc(-c2nc3ccccc3o2)cc1)c1ccc2c(c1)OCO2,11
25,Cc1nn(C)c(C)c1S(=O)(=O)Nc1ccc2c(c1)OCO2,6.46
26,Cc1ccnc(NCc2ccc(Br)cc2)c1,-1.01
27,CCCC(=O)NCCc1cc2ccc(C)c(C)c2[nH]c1=O,5.38
